# Test results: PubChem BioAssay AID686971 (National Center for Advancing Translational Sciences (NCATS), 2013)
# The whole screen tested about 360,000 compounds, of which about 7,500 (2.1%) were called active. The shares of active, inactive and inconclusive entries below differ from those in the screen. Calls follow the shape of the dose curve; as a rule, active = well fitted cell-killing curve with a large enough effect; inconclusive = small, poorly fitted or top-dose-only effect, or effect the other way, or another doubt; inactive = no such curve, though single readings can be large or run the other way. No potency is given beside an inconclusive call; the fits are too rough.
# Assay: qHTS for induction of synthetic lethality in tumor cells producing 2HG: qHTS for the HT-1080-IDH1KD cell line;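 as to activity, negative = toxicity: 0% = DMSO wells and -100% = cell-free medium wells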
# Conditions: HT-1080 IDH1 knockdown viability, ATP luminescence, 48 h; activity, negative = toxicity: at 46.1 µM (top of the series) unless noted
# Summary of the method: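 CellTiter-Glo luminescence after 48 h compound exposure at 37 degrees C of IDH1-knockdown HT-1080 cells in 5% FBS RPMI. %Activity scaled between DMSO wells and cell-free media wells, with curves fitted and assigned curve classes.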
# Potency is read from the fitted curve at half-maximal effect; tags tell the direction and shape of the fitted curve.
SMILES,Potency,"activity, negative = toxicity"
CCCn1c2ccc(F)cc2c2nnc(SCCN3CCOCC3)nc21,"inconclusive [cytotoxic, partial curve]",–
CN(C)CCN(C(=O)c1ccc(S(=O)(=O)N(C)c2ccccc2)cc1)c1nc2ccc(Cl)cc2s1,"inconclusive [cytotoxic, single point]",–
Clc1ccc(-c2cnnc(-c3ccccn3)n2)cc1,"inconclusive [cytotoxic, single point]",–
O=C(COC(=O)c1ccc(Br)o1)Nc1cccc(S(=O)(=O)N2CCCCC2)c1,–,inactive: -1.56%
COc1ccc(S(=O)(=O)c2ccc(O)cc2)cc1,–,inactive: -4.37%
CCc1nnc(N/N=C/c2ccccc2F)n1N,"inconclusive [cytotoxic, single point]",–
O=S(=O)(c1ccc(-c2ccccn2)s1)N1CCC2(CC1)OCCO2,–,inactive: -4.01%
COc1ccc(-c2ccc([C@H]3[C@H]4C=CC[C@@H](C)[C@@H]4C(=O)N3Cc3ccccc3)c(F)c2)cc1,"inconclusive [cytotoxic, partial curve]",–
Cc1ccc(S(=O)(=O)NC(=O)C2(C)CCN2C(=O)Cc2ccc(Cl)cc2Cl)nc1 (centres undefined),"inconclusive [rising, single point]",–
COc1ccc(/C=N/n2c(-c3cc(C)[nH]n3)n[nH]c2=S)cc1,–,inactive: 12.2%
CCc1c(C(=O)N/N=C/c2ccc(OCc3ccc(F)cc3)c(OC)c2)nnn1-c1nonc1N,–,inconclusive: -6.44% [cytotoxic]
CCCn1c2c(c(O)c(C(=O)NCCCN(CC)CC)c1=O)CCCC2,"inconclusive [cytotoxic, single point]",–
COc1ccc(-n2c(-c3ccccc3)cc3c2CCCC3=O)cc1,–,inactive: -10.1%
COc1ccc2nc(SCC(=O)N3CC(=O)Nc4ccccc43)c(C#N)cc2c1,"inconclusive [cytotoxic, full curve]",–
CC(=O)c1cccc(NC(=O)c2ccc(CN3CCc4ccccc4C3)cc2)c1,–,inactive: -11.4%
CCCCCn1c(=O)[nH]c2cc(C(=O)NCCCN3CCCCC3C)ccc2c1=O (centres undefined),"inconclusive [cytotoxic, single point]",–
NC(Cc1ccc(Cl)cc1)c1csc(NC(=O)Nc2ccccc2-c2ccccc2)n1 (centres undefined),"inconclusive [cytotoxic, single point]",–
CCCCNc1c(-c2ccc(SC(C)CC)cc2)nc2ccccn12 (centres undefined),"inconclusive [cytotoxic, single point]",–
COc1ccc(N2CSC(=S)N(c3ccc(OC)cc3)C2)cc1,"inconclusive [cytotoxic, partial curve]",–
